# Experimental data as given in PubChem BioAssay AID995 (National Center for Advancing Translational Sciences (NCATS), 2007).
# Hit rate of the full screen: of about 72,000 compounds, about 710 (0.99%) were called active. Inconclusive results, whose numbers are uncertain, are shown with a selection of clear calls. The call rests on the fitted dose curve; in most records, active means well fitted inhibition curve with a large enough effect; inconclusive means small, poorly fitted or top-dose-only effect; inactive means no such curve, though single readings can be large or run the other way. No potency is given beside an inconclusive call; the fits are too rough.
# Experiment: qHTS Assay for Inhibitors of the ERK Signaling Pathway using a Homogeneous Screening Assay; further: nearly all actives have a fitted effect of over 55% in size
# Details: HEK293-V1b, vasopressin-stimulated pERK AlphaScreen; activity, negative = inhibition: at 57.5 µM (top of the series) unless noted
# Method in brief: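 HEK293 cells stably expressing V1b receptor, preincubated 30 min at 37 °C with compound, then stimulated 5 min with 25 nM vasopressin. Phospho-ERK by AlphaScreen SureFire after 5 h RT; normalized to DMSO and vasopressin; AC50 by Hill fit.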
# On the % scale 0 is the no-effect control and ±100 the full control effect; potency means the concentration at half of the fitted maximal effect; tags describe the fitted curve by direction and shape.
Structure (SMILES),Potency,"activity, negative = inhibition"
Cc1ccccc1CS(=O)(=O)Cc1ccc(C(=O)NCc2ccco2)o1,"inconclusive [inhibitor, partial curve]",–
Cc1cccc(CNc2nc(-c3cccc(NS(C)(=O)=O)c3)nc3ccccc23)c1,"inconclusive [inhibitor, single point]",–
CN1CCC2(CC1)CCN(C(=O)c1cccc(F)c1)CC2,"inconclusive [inhibitor, single point]",–
O=C(Oc1cc(OC(=O)c2ccccc2)c2c(c1)OC(c1ccc(OC(=O)c3ccccc3)c(OC(=O)c3ccccc3)c1)[C@@H](OC(=O)c1ccccc1)C2)c1ccccc1 (some centres undefined),inactive,–
O=c1c2ccccc2nc2n1CCS2,inactive,–
COC(=O)c1cnn2c(C)c(Cc3cccc(F)c3)c(C)nc12,"inconclusive [inhibitor, single point]",–
CC(=O)NC(Cc1c[nH]c2ccccc12)C(=O)Nc1ccc2c(c1)OCO2 (centres undefined),"inconclusive [inhibitor, single point]",–
COc1ccc(S(=O)(=O)Cc2ccc(C(=O)N3CCN(c4ncccn4)CC3)o2)cc1,"inconclusive [inhibitor, partial curve]",–
COc1ncc2nc(-c3ccc(F)cc3)c(=O)n(CCc3ccccc3)c2n1,inactive,–
Cc1cc(OCCCCCNCCO)cc(C)c1Cl,active: 39.8 µM,–
O=C(NCCc1ccc2c(c1)OCO2)C1CCN(S(=O)(=O)c2ccc(Cl)cc2)CC1,inactive,–
Cc1c(C)n(C)c2ccc(C(=O)NCc3cccs3)cc12,active: 12.6 µM,–
COc1ccc(-c2nn(-c3ccccc3)cc2CO)cc1OC,inactive,–
N#Cc1cnc(SCC(=O)c2ccccc2)nc1N,"inconclusive [inhibitor, full curve, poor fit]",–
COCC(C)n1c(C)cc(C(=O)COC(=O)c2c(C)nn(-c3ccccc3)c2C)c1C (centres undefined),"inconclusive [inhibitor, single point]",–
COC(=O)[C@@H]1CC[C@H](C)[C@@H](c2ccc(C)cc2)N1C(=O)c1ccc(/C=N\O[C@@H](C)c2cc(-c3c(C)cc(C)cc3C)no2)cc1,–,inactive: -8.12% [at 11.5 µM]
Cc1ccnc(NC(=O)CN(C)S(=O)(=O)c2cccc3nsnc23)c1,inactive,–
Cn1c(CSc2nc3ccccc3s2)nc2ccccc21,"inconclusive [inhibitor, partial curve]",–
COc1ccccc1-c1nc(C#N)c(NCc2ccc(F)cc2)o1,inactive,–
COc1ccc(N2CCN(c3nc(=S)n(-c4ccccc4)c(C)c3C(C)=O)CC2)cc1,"inconclusive [inhibitor, partial curve]",–
COCCn1c(=O)c(C)nc2cnc(Oc3cccc(Cl)c3)nc21,inactive,–
O=C(CN1CCOc2ccccc21)NC1CCN(Cc2ccccc2)CC1,inactive,–

Structure (SMILES),Potency,"activity, negative = inhibition"
Cc1cc(C)c(O)c(-c2cc(C(=O)Nc3ccc(S(=O)(=O)N4CCOCC4)cc3)[nH]n2)c1,"inconclusive [inhibitor, partial curve]",–
C[C@@]12C(=O)OC(=O)[C@@]1(C)C1CCC2O1,active: 3.16 µM,–
Cn1c(=O)c(-c2cc(F)cc(F)c2)nc2cnc(Oc3cccc(Cl)c3)nc21,"inconclusive [inhibitor, single point]",–
CCOC(=O)c1cccc(NC(=O)CSc2nnc(-c3ccoc3C)n2CC)c1,inactive,–
COc1ccc(S(=O)(=O)Nc2cccc(C)n2)c2ccccc12,"inconclusive [inhibitor, partial curve]",–
CCOC(=O)c1ccccc1N/C=C1\CCCC1=O,inactive,–
C=CCn1c(SCC(=O)c2cccs2)nc2sc(C)cc2c1=O,"inconclusive [inhibitor, single point]",–
COc1ccc(S(=O)(=O)Cc2ccc(C(=O)NCc3ccco3)o2)cc1,"inconclusive [inhibitor, full curve, poor fit]",–
O=C(C1CCCN1S(=O)(=O)c1cccc2cccnc12)N1CCc2ccccc2C1 (centres undefined),"inconclusive [inhibitor, partial curve, poor fit]",–
CCOC(=O)Cc1csc(SCC(=O)c2c(N)n(CC(C)C)c(=O)n(C)c2=O)n1,"inconclusive [inhibitor, single point]",–
Cc1ccnc2nc(C(=O)OCCOc3cccc(Br)c3)nn12,"inconclusive [inhibitor, single point]",–
C#C[C@@]1(OC(C)=O)CC[C@@H]2[C@@H]3CCC4=C[C@@H](OC(C)=O)CC[C@H]4[C@H]3CC[C@]21C,"inconclusive [inhibitor, partial curve]",–
Cc1ccc(Nc2nc(N)nc(CN3CCN(Cc4ccc5c(c4)OCO5)CC3)n2)cc1,"inconclusive [inhibitor, partial curve]",–
COC(=O)CSc1nnc(CNC(=O)c2ccccc2OC)n1-c1ccc(OC)cc1,"inconclusive [inhibitor, partial curve, poor fit]",–
COC(=O)c1[nH]c2ccccc2c1NC(=O)CN1CCN(c2cccc(Cl)c2)CC1,"inconclusive [inhibitor, partial curve]",–
CCn1c(SCC(=O)Nc2nc(C)cs2)nnc1-c1ccco1,"inconclusive [inhibitor, single point]",–
COC(=O)c1c(OC)cc2c(c1C)Oc1c(Cl)c(OC(C)=O)c(Cl)c(C)c1C(=O)O2,inactive,–
O=C(Nc1ccon1)c1ccc2c(c1)OCO2,inactive,–
Cc1cccc(CNc2ncncc2-c2ccc3c(c2)OCO3)c1,"inconclusive [inhibitor, single point]",–
C=CCn1c(SCC(=O)Nc2nc3ccccc3s2)nnc1-c1ccccc1O,active: 15.8 µM,–
CCCCCC(=O)Nc1cc(N(C)C)nc2ccccc12,"inconclusive [inhibitor, full curve, poor fit]",–
CC(=O)/C=C(\C)Nc1ccc(-c2cnc(-c3ccccc3)o2)cc1,"inconclusive [inhibitor, single point]",–
